Molecular target: TGF-β generated endogenously by the cultured cells (human CD4+ T cells)
Assay: cell-based or functional assay
Settings: scale: % iTreg at 50 pg/ml antibody

| percentage of iTreg (FOXP3+CD25+) in stimulated human CD4+ T cells, no exogenous TGF-β; 15% without antibody | Binder |
| --- | --- |
| 8 | Ab1 (antibody, human IgG4 S228P, kappa) heavy: QVQLVQSGAEVKKPGSSVKVSCKASGYTFSSNVISWVRQAPGQGLEWMGGVIPIVDIANYAQRFKGRVTITADESTSTTYMELSSLRSEDTAVYYCASTLGLVLDAMDYWGQGTLVTVSSASTKGPSVFPLAPCSRSTSESTAALGCLVKDYFPEPVTVSWNSGALTSGVHTFPAVLQSSGLYSLSSVVTVPSSSLGTKTYTCNVDHKPSNTKVDKRV[human IgG4 Fc with S228P (EU numbers) not written out] light: ETVLTQSPGTLSLSPGERATLSCRASQSLGSSYLAWYQQKPGQAPRLLIYGASSRAPGIPDRFSGSGSGTDFTLTISRLEPEDFAVYYCQQYADSPITFGQGTRLEIKRTVAAPSVFIFPPSDEQLKSGTASVVCLLNNFYPREAKVQWKVDNALQSGNSQESVTEQDSKDSTYSLSSTLTLSKADYEKHKVYACEVTHQGLSSPVTKSFNRGEC |
| 7 | fresolimumab (antibody, human IgG4, kappa) heavy: QVQLVQSGAEVKKPGSSVKVSCKASGYTFSSNVISWVRQAPGQGLEWMGGVIPIVDIANYAQRFKGRVTITADESTSTTYMELSSLRSEDTAVYYCASTLGLVLDAMDYWGQGTLVTVSSASTKGPSVFPLAPCSRSTSESTAALGCLVKDYFPEPVTVSWNSGALTSGVHTFPAVLQSSGLYSLSSVVTVPSSSLGTKTYTCNVDHKPSNTKVDKRV[human IgG4 Fc not written out] light: ETVLTQSPGTLSLSPGERATLSCRASQSLGSSYLAWYQQKPGQAPRLLIYGASSRAPGIPDRFSGSGSGTDFTLTISRLEPEDFAVYYCQQYADSPITFGQGTRLEIKRTVAAPSVFIFPPSDEQLKSGTASVVCLLNNFYPREAKVQWKVDNALQSGNSQESVTEQDSKDSTYSLSSTLTLSKADYEKHKVYACEVTHQGLSSPVTKSFNRGEC |

Reference: patent publication WO2018134681A1
